Measured values reported in patent US20250332277A1 (Eli Lilly, published 2025).

Key:
[1] = target: T1, recombinant human PTK7 (Acro Biosystems Cat. No. PT7-H52H3) (human, UniProt Q13308 31-704); experiment: SPR, Biacore 8K+, ADC captured by anti-human Fc, human PTK7 as analyte, 37 C, 1:1 model
T1 construct: Bought recombinant protein; also called human PTK7 analyte
T1 sequence: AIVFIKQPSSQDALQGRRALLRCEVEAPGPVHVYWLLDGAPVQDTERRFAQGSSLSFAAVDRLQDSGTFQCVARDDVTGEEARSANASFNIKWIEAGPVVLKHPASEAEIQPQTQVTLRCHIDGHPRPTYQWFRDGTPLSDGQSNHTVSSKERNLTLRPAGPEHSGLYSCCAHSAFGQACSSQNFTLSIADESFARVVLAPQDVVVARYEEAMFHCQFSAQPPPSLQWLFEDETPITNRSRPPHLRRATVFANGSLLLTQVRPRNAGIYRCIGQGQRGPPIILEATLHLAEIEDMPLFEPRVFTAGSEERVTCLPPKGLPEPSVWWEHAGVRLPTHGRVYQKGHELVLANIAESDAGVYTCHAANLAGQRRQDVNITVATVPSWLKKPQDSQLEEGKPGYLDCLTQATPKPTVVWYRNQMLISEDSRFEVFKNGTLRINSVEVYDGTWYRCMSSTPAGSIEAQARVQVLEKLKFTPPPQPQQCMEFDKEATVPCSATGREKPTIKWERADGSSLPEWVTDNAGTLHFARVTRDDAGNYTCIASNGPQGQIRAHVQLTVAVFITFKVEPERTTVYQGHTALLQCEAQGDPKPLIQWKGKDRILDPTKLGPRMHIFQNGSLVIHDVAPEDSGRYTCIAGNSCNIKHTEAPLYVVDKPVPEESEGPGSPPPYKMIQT
Experimental: A Biacore 8K+ instrument (Cytiva, Marlborough, MA) was used to determine kinetics and affinity parameters for the binding interactions of ADCs binding to recombinant human PTK7 (Acro Biosystems Cat. No. PT7-H52H3, Newark, DE).
In each analysis cycle, a different ADC was captured on flow cell 2 of each channel by injecting a 5 μg/mL solution at 10 μL/min for 2 minutes. After capture, the same analyte was injected on flow cells 1 and 2 in all 8 channels for 2 minutes at 30 μL/min and dissociation was monitored for 10 minutes. After dissociation, all surfaces were regenerated with three consecutive 1-minute injections of 75 mM phosphoric acid at 10 μL/min. ADC capture and analyte cycles were repeated to obtain human PTK7 analyte binding of each ADC at analyte concentrations of 0, 2.47, 7.41, 22.2, 66.7, 200, and 600 nMs.
Sensorgram data were reference subtracted and blank subtracted, then globally fit with the default 1:1 binding model in Biacore Insight Evaluation Software v3.0.12.15655, as shown in Table 4.

[2] = target: T2, human PTK-7 on cells (OV90-PTK-7, NCI-H446, OVCAR-3) (human, UniProt Q13308 31-1070); experiment: cell-based or functional assay
T2 sequence: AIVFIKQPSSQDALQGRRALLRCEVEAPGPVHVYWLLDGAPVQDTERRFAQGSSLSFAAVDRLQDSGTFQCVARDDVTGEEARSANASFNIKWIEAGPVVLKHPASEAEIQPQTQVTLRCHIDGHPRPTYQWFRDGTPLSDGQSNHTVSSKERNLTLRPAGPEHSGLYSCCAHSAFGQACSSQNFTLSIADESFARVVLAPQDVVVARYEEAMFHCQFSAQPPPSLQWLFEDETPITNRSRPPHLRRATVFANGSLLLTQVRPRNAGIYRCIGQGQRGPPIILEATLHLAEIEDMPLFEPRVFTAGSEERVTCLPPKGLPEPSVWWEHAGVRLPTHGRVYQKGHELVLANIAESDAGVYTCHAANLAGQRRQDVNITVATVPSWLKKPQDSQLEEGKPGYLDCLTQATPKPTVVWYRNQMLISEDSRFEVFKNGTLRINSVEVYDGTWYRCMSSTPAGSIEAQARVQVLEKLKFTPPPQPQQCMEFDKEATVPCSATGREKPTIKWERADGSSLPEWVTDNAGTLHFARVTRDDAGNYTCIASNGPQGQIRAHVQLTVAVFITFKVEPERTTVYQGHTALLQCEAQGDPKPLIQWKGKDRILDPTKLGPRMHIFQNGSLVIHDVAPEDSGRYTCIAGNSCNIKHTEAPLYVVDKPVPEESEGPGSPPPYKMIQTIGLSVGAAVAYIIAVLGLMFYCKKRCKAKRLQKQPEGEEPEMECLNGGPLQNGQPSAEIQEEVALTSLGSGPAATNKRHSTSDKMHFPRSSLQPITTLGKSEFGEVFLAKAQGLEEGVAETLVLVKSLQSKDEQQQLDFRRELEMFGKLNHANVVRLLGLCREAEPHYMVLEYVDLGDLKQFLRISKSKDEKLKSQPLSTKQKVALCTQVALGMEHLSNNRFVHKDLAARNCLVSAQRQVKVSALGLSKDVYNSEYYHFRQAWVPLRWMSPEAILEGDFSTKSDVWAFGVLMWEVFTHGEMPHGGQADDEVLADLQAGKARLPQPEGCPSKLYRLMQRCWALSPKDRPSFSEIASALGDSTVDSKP

Kd [1]: 74.2 nM
koff [1]: 0.0134 s⁻¹
kon [1]: 181000 M⁻¹ s⁻¹
B1: Ab2-PSAR10-VA-exatecan (other)
heavy: QVQLQESGPGLVKPSETLSLTCTVSGGSISTYYWSWIRQPAGKGLEWIGRIYTSGLTNYNPSLKSRVTMSVDTSKNQFSLKLSSVTAADTAVYYCARDPHYYDGSGFDYWGQGTLVTVSSASTKGPSVFPLAPSSKSTSGGTAALGCLVKDYFPEPVTVSWNSGALTSGVHTFPAVLQSSGLYSLSSVVTVPSSSLGTQTYICNVNHKPSNTKVDKRVEPKSCDKTHTCPPCPAPEAAGGPSVFLFPPKPKDTLMISRTPEVTCVVVSVSHEDPEVKFNWYVDGVEVHNAKTKPREEQYNSTYRVVSVLTVLHQDWLNGKEYKCKVSNKALPAPIEKTISKAKGQPREPQVYTLPPSREEMTKNQVSLTCLVKGFYPSDIAVEWESNGQPENNYKTTPPVLDSDGSFFLYSKLTVDKSRWQQGNVFSCSVMHEALHNHYTQKSLSLSPGK
light: [sequence of about 100 residues omitted][sequence of about 120 residues omitted]
modifications: PSAR10-VA-exatecan linker-payload (Formula XV) on cysteine thiols after full reduction of the antibody (DAR 8 procedure); positions not stated for this ADC
notes: Antibody-drug conjugate of Ab2; also called Ab2-VA-Exatecan
Cytotoxicity IC50, OVCAR-3 cells (CellTiter-Glo, 7 days) [2]: 4.84 nM
